Test results: PubChem BioAssay AID686978 (National Center for Advancing Translational Sciences (NCATS), 2013)
The whole screen tested about 420,000 compounds, of which about 64,000 (15%) were called active. This list was built around the results that the source calls inconclusive (neither active nor inactive); the mix of calls is not that of the screen. Calls come from the whole dose curve; as a rule, active = well fitted inhibition curve with a large enough effect; inconclusive = small, poorly fitted or top-dose-only effect; inactive = flat fitted curve, though single readings scatter. No potency is given beside an inconclusive call; the fits are too rough.

Experiment: qHTS for Inhibitors of human tyrosyl-DNA phosphodiesterase 1 (TDP1): qHTS in cells in absence of CPT; note: nearly all actives have a fitted effect of over 55% in size
Conditions: DT40 Tdp1-/- hTDP1 cells, no CPT, ATP luminescence, 48 h; activity change, negative = growth inhibition: at 46.2 µM (top of the series)
Method in brief: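 Growth kinetics read by CellTiter-Glo luminescence after ≥48 hr at 37 °C. Cells: DT40 Tdp1-/- stably carrying human TDP1, 400 per well, compound exposure in the absence of CPT (DMSO vehicle).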
% is set by controls: 0 for no effect and ±100 for the full control effect; potency is the fitted concentration of half-maximal effect; tags give direction and shape of the fitted curve.

Compound | activity change, negative = growth inhibition | Potency
COc1ccccc1NC(=O)c1ncoc1-c1ccco1 | inactive: -0.399% | 
O=C(/C=C/c1cccc([N+](=O)[O-])c1)N1CCN(Cc2ccccc2)CC1 | inconclusive: -30.4% [inhibitor] | 
Cc1ccc(C)c2[nH]c(=O)c(CN(Cc3ccc4c(c3)OCO4)Cc3nnnn3Cc3ccco3)cc12 |  | inconclusive [inhibitor, single point]
CN1CCCC(OC(=O)c2ccc(S(=O)(=O)N(C)C)cc2)C1 (stereo unspecified) | inactive: -9.95% | 
Cc1ccc(OCC(=O)Nc2sc3c(c2C(N)=O)CCCC3)c(C(C)(C)C)c1 |  | inconclusive [inhibitor, partial curve]
O=[N+]([O-])c1cccc(-c2ccc(/C=N/NC(=S)NCc3ccco3)o2)c1 |  | active: 16.4 µM
COc1ccc(-c2oc(/N=C/N3CCCC3)c(C#N)c2-c2ccc(OC)cc2)cc1 |  | inconclusive [inhibitor, partial curve]
O=S(=O)(c1ccc(Cl)cc1)c1nc(-c2ccccc2F)oc1NCCCN1CCOCC1 |  | inconclusive [inhibitor, single point]
CC1=CCC(COC(=O)Nc2ccccc2)CC1 (stereo unspecified) |  | inconclusive [inhibitor, single point]
Cc1c(C)[n+](=O)c(C)c(C)n1[O-] | inactive: -6.67% | 
CCCCN(C(=O)CSc1nnc(-c2ccc(Cl)cc2)o1)c1c(N)n(CC(C)C)c(=O)[nH]c1=O |  | inconclusive [inhibitor, single point]
COCCn1c(=O)c(-c2cccs2)nc2cnc(N3CCNCC3)nc21 |  | inconclusive [inhibitor, single point]
COc1ccc(NC(=O)c2ccc(COCC(F)(F)C(F)F)cc2)cc1OC | inactive: -45.3% | 
C=CCOn1c(=O)c(-c2ccccc2)[n+]([O-])c2ccccc21 | inactive: -9.31% | 
CC(C)(C)CC(C)(C)NC(=S)Nc1ccc(S(=O)(=O)N2CCOCC2)cc1 |  | inconclusive [inhibitor, single point]
O=C(Cn1ncc2c3ccccc3n(Cc3ccccc3F)c2c1=O)NCCCc1ccccc1 |  | active: 18.4 µM
COCCNC(=O)COc1cc(=O)n(C)c2ccccc12 | inactive: 1.1% | 
O=C(N/N=C/c1cc(Br)c(O)c(Br)c1O)c1cccnc1 |  | inconclusive [inhibitor, partial curve, poor fit]
O=C(NCCc1c[nH]c2ccccc12)C1CCN(c2nnc(N3CCCC3=O)s2)CC1 |  | inconclusive [inhibitor, partial curve, poor fit]
Cc1cc([N+](=O)[O-])ccc1NCc1cccc2ccccc12 |  | active: 15.8 µM
COc1ccc(Cl)cc1C(=O)NCCS(=O)(=O)N1CCN(c2ccccc2F)CC1 |  | inconclusive [inhibitor, single point]
C=CCn1c(O)c(N=NC(=S)Nc2ccccc2F)c2cc(S(=O)(=O)N3CCOCC3)ccc21 |  | active: 0.731 µM
COC(=O)C[C@@H]1C[C@@H]2c3cc(NS(=O)(=O)c4ccccc4)ccc3O[C@@H]2[C@@H](CO)O1 |  | inconclusive [inhibitor, single point]

Compound | activity change, negative = growth inhibition | Potency
CC(=O)Nc1ccc2c(c1)-c1ccc(F)cc1C2 |  | inconclusive [inhibitor, single point]
CCOc1ccccc1C(=O)N(Cc1ccco1)Cc1ccccc1F |  | active: 20.6 µM
COc1ccc(C(=O)N2CC3(C)C4CCC3(C)C2(C#N)C4)cc1OC (stereo unspecified) |  | inconclusive [inhibitor, single point]
Cc1ccc(C(=O)Nc2ccc(Br)cc2)cc1S(=O)(=O)NCc1ccccc1 |  | inconclusive [inhibitor, single point]
Cc1cccn2c(=O)c3cc(C(=O)NCCCN4CCCC4=O)n(C)c3nc12 | inconclusive: -32% [inhibitor] | 
COc1cccc(N2CCN(S(=O)(=O)c3ccc(-c4coc(C)n4)cc3)CC2)c1 |  | active: 20.6 µM
CCOc1cc(/C=N/N=C(N)N)ccc1OCc1ccc(Cl)cc1 |  | active: 16.4 µM
COCCCNC(=O)c1ccc2sc([C@@H]3O[C@H](CO)[C@H](O)[C@H](O)[C@H]3O)nc2c1 | inactive: -0.587% | 
CCSc1nc2ccccc2n1CCC(=O)O | inactive: -1.83% | 
O=C(CCc1nc2ccccc2c(=O)[nH]1)Nc1nnc(SCc2ccccc2F)s1 |  | active: 16.4 µM
CCc1nc2ccc(C(=O)NCc3cccc(Br)c3)cc2nc1CC |  | inconclusive [inhibitor, single point]
COc1cccc(C(O)c2nc(/C=C/c3ccccc3)cs2)c1 (stereo unspecified) | inconclusive: -30.9% [inhibitor] | 
O=C(COC(=O)CNS(=O)(=O)c1ccc(Br)cc1Cl)Nc1ccc(N2CCOCC2)cc1 | inactive: -18.4% | 
COCCCNC(=S)N1CCC(C(=O)c2ccc(Cl)cc2)CC1 | inactive: -69.3% | 
COc1ccc(-n2c(=O)c(CCC(=O)N(C)Cc3cccs3)nc3ccccc32)cc1 |  | inconclusive [inhibitor, single point]
NS(=O)(=O)c1ccc(CCNC(=O)C(=O)c2c[nH]c3ccccc23)cc1 |  | inconclusive [inhibitor, single point]
COc1ccc(-c2nc3ccccc3s2)cc1NC(=O)COc1cccc(C)c1 |  | active: 16.4 µM
Cc1ccc(S(=O)(=O)N(C)C)cc1NC(=O)COC(=O)/C=C/c1ccc2ccccc2n1 |  | inconclusive [inhibitor, single point]
CCc1ccc(S(=O)(=O)Nc2cc3c(cc2N2CCOCC2)n(C)c(=O)c(=O)n3C)cc1 |  | inconclusive [inhibitor, single point]
O=c1c2ccccc2c(-c2ccccc2)nn1-c1cc(Cl)cc(Cl)c1 | inconclusive: -32.8% [inhibitor] | 
COc1cccc(/C=C2\SC(=S)N(CCC(=O)N3CCCCC3)C2=O)c1 |  | active: 4.11 µM
Cn1cccc1/C=N/N1CCN(Cc2ccccc2Cl)CC1 |  | active: 2.59 µM
Cc1nc2ccc(C(=O)N3CCC(O)(Cc4ccccc4)CC3)cn2c1N(C)C(=O)CCc1ccccc1 |  | inconclusive [inhibitor, full curve, poor fit]
